The campaign covered roughly 4,800 compounds. About 420 (8.8%) showed an effect of 50% or more. The list shows a part of the results.
These molecules were tested on Plasmodium falciparum (assay: Confirmatory screen in NF54 nanoGlo assay, in single point, at 2uM, 72h). Conditions: timepoint 72 hour.
Format: functional, Erythrocyte

Row | SMILES | % Inhibition [%]
1 | CC1CN(CC(=O)NCCC#N)C(C)CO1 (stereo unspecified) | 4
2 | CCN1CCC2CCC(C1)N2C(=O)Nc1ccc(OC2CCC2)c(F)c1 (stereo unspecified) | -5
3 | Cc1noc(-c2cc(=O)[nH]c3ccccc23)n1 | 1
4 | COc1ccccc1[C@@H]1CC(c2cccn2C)=NN1C(=O)CN(CCN1CCOCC1)C(C)=O | -1
5 | O=C(Nc1ccc(N2CCC(Cc3ccccc3)CC2)cc1C(=O)O)c1ccccc1F | -21
6 | Cc1nnc(NC(c2cnc3ccccc3c2)[C@H]2C[C@@H](O)C2)s1 (stereo partly specified) | 35
7 | COc1ccc(CCc2nc(NC(=O)c3nc(C)sc3C)n[nH]2)cc1OC | 65
8 | COc1ccc(C(=O)N(CCO)CCN2CCOCC2)c(OC2CCCC2)c1 | 3
9 | CCOC(=O)c1sc(NC)nc1C(F)(F)F | -19
10 | Cc1nnc2ccc(S(=O)(=O)N(Cc3ccc(F)cc3)c3cccc(Cl)c3)cn12 | 3
11 | Cc1ccc(Cl)cc1N1CCN(C(=O)c2ccc3noc(-c4ccc(F)cc4)c3c2)CC1 | -19
12 | COc1cccc(NC(=O)N2CC(O)CC2C2CCCCC2)c1 (stereo unspecified) | -3
13 | CN(C)c1ccc(CNC2CCCCCC2)cc1 | -15
14 | Cc1cc(C(=O)NC(C2CC2)C2CC2)c(C)o1 | -2
15 | Cc1cccc(CC(=O)N[C@@H](C)CCC(=O)O)c1 | 4
16 | CCOC(=O)C1CCN(c2cc3c(cc2NC(=O)c2cccc(C)c2)n(C)c(=O)n3C)CC1 | 2
17 | CN(C(=O)Cn1c(=O)n(-c2cc(F)cc(F)c2)c(=O)c2sccc21)c1ccccc1 | -1
18 | Cc1nc(N2CCC(c3nc(-c4ccccc4)no3)CC2)c2c(C)noc2n1 | 54
19 | NC(=O)[C@H]1CCCN(c2ccnc(C(=O)NCc3ccccc3)c2)C1 | 3
20 | Oc1cc(CC[C@H]2CCCCN2)cc(-c2cnc3ccccc3n2)c1 | 73
21 | N#Cc1cccc(-c2c[nH]c(CNc3nc4cc(C(F)(F)F)ccc4s3)n2)c1 | 0
22 | O=C(Cn1c(=O)n(-c2cc(F)cc(F)c2)c(=O)c2sccc21)NCc1ccc2c(c1)OCO2 | -9
23 | COc1ccc(S(=O)(=O)N2C[C@@H]3CCCN3c3cc(C(F)(F)F)ccc32)cc1 | 3
24 | O=S(=O)(Cc1ccccc1)N1CCN(C2CCCCCC2)CC1 | -5
25 | CCC1C(=O)CC(c2ccco2)NC1c1ccco1 (stereo unspecified) | -3
26 | Cc1ccc(NC(=O)Nc2cc(C)ccc2N2CCCN(Cc3ccc(F)cc3)C2=O)cc1 | 34

Row | SMILES | % Inhibition [%]
27 | Cc1ccc(S(=O)(=O)CC(=O)NC(C)(C)C)cc1 | 0
28 | C[C@H]1CCN(c2ncc(Cl)cc2Cl)CCS1(=O)=O | -9
29 | O=C1C2C(Cc3ccccc3)NC3(C(=O)Nc4ccccc43)C2C(=O)N1c1cccc(C(F)(F)F)c1 (stereo unspecified) | 4
30 | Cc1ccccc1CNC1C(=O)NCCC1C (stereo unspecified) | -6
31 | COc1ccc(CCc2nnc(NC(=O)Cc3c(C)noc3C)[nH]2)cc1OC | 15
32 | Cc1c(F)cccc1NC(=O)N1CCN(C2=CC3=N[C@@H](C)CN3C=N2)CC1 | 44
33 | Cc1cnc(C2CCN(C(=O)[C@@H]3CNC(=O)O3)CC2)s1 | -2
34 | CCCN(CC(=O)O)S(=O)(=O)c1cccc(C)c1Br | -7
35 | COC(C)[C@H](C)NCC(C)c1ccccc1 (stereo partly specified) | -10
36 | Cc1c(Cl)cccc1S(=O)(=O)N1CCN(c2cccnc2)C(=O)C1 | 2
37 | COCc1cc(=O)n(CC(=O)Nc2cccc(C)c2C)c(N2CCOCC2)n1 | 5
38 | CC(C)c1ccc(-c2nc(CN3CCCCC3)cc(CN3CCCCC3)c2O)cc1 | 96
39 | CC(=O)Nc1cc2c(cc1NC(C)=O)N(C(C)=O)CC2 | -15
40 | CC(=O)Nc1ccccc1CC(c1c[nH]c2ccccc12)c1c[nH]c2ccccc12 | 0
41 | CCN(C)[C@H]1CCN(c2cc(C(F)(F)F)ccn2)C1 | -17
42 | CCN(C(=O)Cn1cc(-c2ccccc2)c2ncn(CC)c(=O)c21)c1ccccc1 | 75
43 | CCCN1CC(=O)N(c2ccc(C)cc2)[C@@H]2CS(=O)(=O)C[C@@H]21 | 4
44 | Cc1nc2cc(NC(=O)[C@@]3(C)CCCN(C(=O)c4ccccc4)C3)ccc2o1 | 57
45 | O=C(Cc1ccc(C(=O)Nc2nc(-c3ccccc3)cs2)cc1)c1ccccc1 | 10
46 | Cc1nn(C)c(=O)n1-c1ccc(Oc2ccccc2)cc1 | -4
47 | COCC(=O)N[C@H]1CC[C@H](CO)CC1 | 1
48 | Cc1nn(C)c(Oc2cccc(F)c2)c1NC(=O)CC(C)C | 8
49 | CC1CCC2C(C1)c1c(nc(O)n(-c3ccccc3)c1=O)OC2(C)C (stereo unspecified) | 8
50 | COc1ccc2c(c1)CN(Cc1ccccc1Cl)CC[C@H]1COC(=O)N21 | 11
51 | CC(C)Oc1nccnc1NC[C@](C)(O)c1cccc(Cl)c1 | -7
52 | CCn1cc(Cl)c(C(=O)N(C2CCCCC2)C2CCCCC2)n1 | 7

Row | SMILES | % Inhibition [%]
53 | COc1ccc2oc(-c3ccc(CNC(=O)c4cccnc4)cc3)nc2c1 | 2
54 | O=S(=O)(Nc1ccc2nncn2c1)c1c(F)cccc1Cl | -17
55 | Cc1ccsc1-c1noc([C@@H]2COCCN2C)n1 | -7
56 | NC(=O)c1cc(Cl)c(Cl)c(Cl)c1 | -18
57 | Cc1ccc(Oc2ccccc2CNC(=O)[C@@H]2CCC(=O)N2)cc1 | -6
58 | CC1CCC(N(CC(=O)NC(N)=O)C2CC2)CC1 (stereo unspecified) | 1
59 | CCC1CCCC(NS(=O)(=O)CCC(C)(C)C)C1 (stereo unspecified) | -13
60 | CCN1C(=O)CN(C(=O)c2cccc(C)c2)CC12CCOCC2 | -1
61 | CCC(NC(=O)c1c[nH]c(C)cc1=O)C(O)c1ccccc1F (stereo unspecified) | 4
62 | COc1cccc(-c2cc(C(=O)N3CCCN(C(=O)c4cc(-c5cccc(OC)c5)nc5ccccc45)CC3)c3ccccc3n2)c1 | -1
63 | Cc1nc2cccnc2n1-c1cc(C(=O)NCC[C@H](C)N2CCCC2)ccc1Cl | 0
64 | CCn1ccc(CN(C)C(=O)[C@H]2CCCN(S(=O)(=O)c3cnn(C)c3C)C2)n1 | -12
65 | CC(N=C1NC(=NC(C)c2ccccc2)c2ccccc21)c1ccccc1 (stereo unspecified) | 17
66 | CNc1c(-n2cc(C(=O)OC)c(C(=O)OC)c2C#N)c(=O)n(C)c(=O)n1C | -12
67 | CC(C)(C)c1ccc(C(=O)C(=O)NC[C@H]2CCCO2)cc1 | -16
68 | Cc1ccc2c(c1)ncc1c(-c3ccccc3)nn(-c3ccc(F)cc3)c12 | -5
69 | O=C(Nc1cc(C(F)(F)F)ccc1Cl)C1CCC(N2C(=O)c3cc(Cl)c(Cl)cc3C2=O)CC1 (stereo unspecified) | -7
70 | Cn1c(CN2CCOC[C@@]23CCOC3)nnc1C1CC1 | 7
71 | C[C@H](c1ccccc1)N1C(=O)[C@@H]2CN(C(=O)CC(C)(C)C)CCN2C1=O | -7
72 | Cc1nnc(NC(=O)c2ccc3n[nH]c(=O)n3c2)s1 | -9
73 | Cc1cc(C)cc(-n2c(=O)c3sccc3n(CC(=O)N[C@@H](C)CCc3ccccc3)c2=O)c1 | -9
74 | O=C(Cn1nnc2c1CCCC2)NCc1ccc2cc[nH]c2n1 | 2
75 | COc1cc(C)sc1C(=O)NCc1csc(=O)[nH]1 | -6
76 | Cc1ccc(C)c(-n2c(=O)c3sccc3n(CC(=O)N3CC(C)CC(C)C3)c2=O)c1 (stereo unspecified) | 2
77 | Cc1cc2ncn(CN3CC[C@@H](NC(=O)OC(C)(C)C)C3)c2cc1C | -19
78 | O=C1Nc2ccc(-c3ccccc3)cc2[C@@]1(O)C(F)(F)F | 6

Row | SMILES | % Inhibition [%]
79 | COc1cc2ncc3c(-c4ccc(C)c(C)c4)n[nH]c3c2cc1OC | 33
80 | CCn1cc(C)c(C(=O)O)c1CC(=O)NCc1ccc(F)cc1 | -12
81 | c1cc(CN2CCC3(CC2)OCCO3)c2c(c1)OCCO2 | -1
82 | C[C@H](NC(=O)c1cc(-c2ccc(F)cc2)ns1)c1ccccn1 | -1
83 | Cc1cc(C)cc(NC(=O)Cc2nnc3ccc(C(=O)Nc4ccccc4)cn23)c1 | 0
84 | CC(C)CC(=O)N1CC[C@H](CC(=O)NCc2ccccc2)C1 | 1
85 | COc1ccc2cc3n(c2c1)C[C@](C(=O)NC1CCCCCC1)(c1ccccc1)N(Cc1cccc(Br)c1)C3=O | 2
86 | CCOc1ccc([C@@H](Nc2nc(C)cc(C)n2)c2cc(C)sc2NC(=O)c2ccccc2)cc1 | 1
87 | COC(=O)c1ccc(N(Cc2ccccc2O)c2ncc(C(F)(F)F)cc2Cl)c(F)c1 | -11
88 | O=S(=O)(c1ccc(Cl)cc1)n1ccc(C2CC2)n1 | -7
89 | Cc1nc([C@@H](NC(=O)c2cc(Cl)cn2C)c2cnn(C)c2)no1 | -9
90 | CC(=O)c1nc2cc(F)c(N3CCOCC3)cc2nc1C | -11
91 | CCOc1ccc2c(n1)CCN(C(=O)c1ccc(OC)cc1)C2 | -13
92 | COc1cccc2nc(C[C@H]3CN(CC(C)C)CC[C@H]3CC(=O)O)[nH]c12 | -9
93 | CCOC(=O)CC1(S(=O)(=O)Nc2cccc3ccccc23)CC1 | 0
94 | CCN(CC)c1nc(Nc2ccc(Cl)c(Cl)c2)nc(Nc2cc(C)ccc2C)n1 | 1
95 | O=C(COc1ccc(F)cc1)N1CCc2nc(OCC3CC3)ccc2C1 | -7
96 | CCN(CC)[C@@H](CNC(=O)CCc1c(C)nn(C)c1C)c1ccco1 | 0
97 | O=C(NC1CCCC1)c1n[nH]c(=O)c2ccccc12 | 1
98 | Cc1cccc(NC(=O)CCC(=O)OCC(F)(F)F)c1C | -11
99 | Cc1ccc(NC(=O)N2CCCN(c3ccc(NC(=O)c4cccs4)cc3C(=O)NCc3ccc(F)cc3)CC2)cc1 | 43
100 | Clc1ccc2c(c1)CC[C@@H]2NCc1nnc2n1CCC2 | -6
101 | COc1ccc(CCN[C@@H]2c3ccccc3C(=O)N2C2CCCCC2)cc1OC | 2
